Results from article PMC12450465, “Oligomerization and exocyst coupling underlie Spa2-mediated focusing of polarized growth in fission yeast” (Journal of Cell Science, 2025).
Results are given in words; binding and its absence hold for the method and conditions named. For some assays here: In cells and extracts the contact can be indirect. Some results given as binding are weak or reduced against the parent protein; the word gives no strength. For some assays here: Tags and fused reporters may be left off the sequences shown. Values belong to the binder of their own block, whether it stands above or below them.

Legend:
[1] = biological target: Pos1, yeast two-hybrid construct (S. pombe) (UniProt O13743); test: two-hybrid; directed yeast two-hybrid, S. cerevisiae strain PJ69-4A, plasmids pGAD424 and pGBT9, growth selection on media lacking histidine
[2] = biological target: T1, Spa2(305–360), yeast two-hybrid construct (S. pombe) (UniProt O42869); test: as above
T1 sequence: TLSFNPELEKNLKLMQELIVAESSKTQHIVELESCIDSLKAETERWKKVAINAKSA

[3] = biological target: T2, Spa2(1–305)–GFP (S. pombe) (UniProt O42869); test: co-IP; anti-GFP immunoprecipitation from S. pombe whole-cell lysates in NP40 buffer, native conditions; anti-FLAG immunoblot
T2 sequence: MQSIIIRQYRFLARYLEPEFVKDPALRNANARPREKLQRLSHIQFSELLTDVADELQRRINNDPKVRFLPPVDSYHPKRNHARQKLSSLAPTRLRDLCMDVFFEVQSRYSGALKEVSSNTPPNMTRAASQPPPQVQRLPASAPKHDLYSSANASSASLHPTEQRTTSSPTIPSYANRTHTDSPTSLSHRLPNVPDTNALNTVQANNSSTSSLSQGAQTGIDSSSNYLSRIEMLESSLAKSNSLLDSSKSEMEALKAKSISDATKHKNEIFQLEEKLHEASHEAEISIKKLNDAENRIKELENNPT

[4] = biological target: T3, Spa2–GFP (full length, from the endogenous spa2 locus) (S. pombe) (UniProt O42869); test: as above
T3 sequence: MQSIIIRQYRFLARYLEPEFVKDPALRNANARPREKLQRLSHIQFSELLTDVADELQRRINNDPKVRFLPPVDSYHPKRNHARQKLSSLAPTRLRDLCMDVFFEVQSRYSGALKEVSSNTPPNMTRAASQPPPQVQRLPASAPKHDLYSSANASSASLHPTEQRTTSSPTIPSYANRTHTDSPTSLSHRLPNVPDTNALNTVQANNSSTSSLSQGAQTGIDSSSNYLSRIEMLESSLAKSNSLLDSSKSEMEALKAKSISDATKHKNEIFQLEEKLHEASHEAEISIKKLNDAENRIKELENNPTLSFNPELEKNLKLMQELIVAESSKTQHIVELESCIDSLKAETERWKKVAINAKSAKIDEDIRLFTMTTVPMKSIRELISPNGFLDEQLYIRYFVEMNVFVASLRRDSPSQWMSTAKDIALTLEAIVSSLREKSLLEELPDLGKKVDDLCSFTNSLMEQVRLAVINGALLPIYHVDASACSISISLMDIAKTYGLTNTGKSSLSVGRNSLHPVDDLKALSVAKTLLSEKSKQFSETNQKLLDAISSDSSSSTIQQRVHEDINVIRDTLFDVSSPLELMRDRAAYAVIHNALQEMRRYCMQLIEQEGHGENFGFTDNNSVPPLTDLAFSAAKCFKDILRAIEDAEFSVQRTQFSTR

[5] = biological target: T4, Spa2(1–360)–GFP (S. pombe) (UniProt O42869); test: as above
T4 sequence: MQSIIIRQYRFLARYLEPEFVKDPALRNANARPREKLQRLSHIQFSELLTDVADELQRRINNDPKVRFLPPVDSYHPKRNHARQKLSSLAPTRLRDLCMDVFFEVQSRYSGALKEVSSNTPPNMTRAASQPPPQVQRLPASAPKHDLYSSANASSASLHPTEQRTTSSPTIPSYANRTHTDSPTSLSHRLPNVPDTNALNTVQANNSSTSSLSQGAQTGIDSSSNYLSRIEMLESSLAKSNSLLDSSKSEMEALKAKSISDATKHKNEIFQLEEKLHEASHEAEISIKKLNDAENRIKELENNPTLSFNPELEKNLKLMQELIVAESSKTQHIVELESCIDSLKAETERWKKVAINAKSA

[6] = biological target: Spa2, yeast two-hybrid construct (S. pombe) (UniProt O42869); test: two-hybrid; directed yeast two-hybrid, S. cerevisiae strain PJ69-4A, plasmids pGAD424 and pGBT9, growth selection on media lacking histidine
[7] = biological target: Spa2 (Spa2–FLAG and Spa2–GFP, two differently tagged copies in a spa2–FLAG spa2–GFP diploid strain) (S. pombe) (UniProt O42869); test: co-IP; co-immunoprecipitation of Spa2–FLAG and Spa2–GFP from a spa2–FLAG spa2–GFP diploid strain, also from a diploid strain lacking Pos1; NP40 buffer, native conditions
[8] = biological target: Pos1, last 69 amino acids, yeast two-hybrid construct (S. pombe) (UniProt O13743); test: two-hybrid; directed yeast two-hybrid, S. cerevisiae strain PJ69-4A, plasmids pGAD424 and pGBT9, growth selection on media lacking histidine

- binding [6]: binds
B3: Spa2, yeast two-hybrid construct (protein, UniProt O42869 1-659)
chain: MQSIIIRQYRFLARYLEPEFVKDPALRNANARPREKLQRLSHIQFSELLTDVADELQRRINNDPKVRFLPPVDSYHPKRNHARQKLSSLAPTRLRDLCMDVFFEVQSRYSGALKEVSSNTPPNMTRAASQPPPQVQRLPASAPKHDLYSSANASSASLHPTEQRTTSSPTIPSYANRTHTDSPTSLSHRLPNVPDTNALNTVQANNSSTSSLSQGAQTGIDSSSNYLSRIEMLESSLAKSNSLLDSSKSEMEALKAKSISDATKHKNEIFQLEEKLHEASHEAEISIKKLNDAENRIKELENNPTLSFNPELEKNLKLMQELIVAESSKTQHIVELESCIDSLKAETERWKKVAINAKSAKIDEDIRLFTMTTVPMKSIRELISPNGFLDEQLYIRYFVEMNVFVASLRRDSPSQWMSTAKDIALTLEAIVSSLREKSLLEELPDLGKKVDDLCSFTNSLMEQVRLAVINGALLPIYHVDASACSISISLMDIAKTYGLTNTGKSSLSVGRNSLHPVDDLKALSVAKTLLSEKSKQFSETNQKLLDAISSDSSSSTIQQRVHEDINVIRDTLFDVSSPLELMRDRAAYAVIHNALQEMRRYCMQLIEQEGHGENFGFTDNNSVPPLTDLAFSAAKCFKDILRAIEDAEFSVQRTQFSTR

- binding [7]: binds
B4: Spa2 (Spa2–FLAG and Spa2–GFP, two differently tagged copies in a spa2–FLAG spa2–GFP diploid strain) (protein, UniProt O42869 1-659)
chain: MQSIIIRQYRFLARYLEPEFVKDPALRNANARPREKLQRLSHIQFSELLTDVADELQRRINNDPKVRFLPPVDSYHPKRNHARQKLSSLAPTRLRDLCMDVFFEVQSRYSGALKEVSSNTPPNMTRAASQPPPQVQRLPASAPKHDLYSSANASSASLHPTEQRTTSSPTIPSYANRTHTDSPTSLSHRLPNVPDTNALNTVQANNSSTSSLSQGAQTGIDSSSNYLSRIEMLESSLAKSNSLLDSSKSEMEALKAKSISDATKHKNEIFQLEEKLHEASHEAEISIKKLNDAENRIKELENNPTLSFNPELEKNLKLMQELIVAESSKTQHIVELESCIDSLKAETERWKKVAINAKSAKIDEDIRLFTMTTVPMKSIRELISPNGFLDEQLYIRYFVEMNVFVASLRRDSPSQWMSTAKDIALTLEAIVSSLREKSLLEELPDLGKKVDDLCSFTNSLMEQVRLAVINGALLPIYHVDASACSISISLMDIAKTYGLTNTGKSSLSVGRNSLHPVDDLKALSVAKTLLSEKSKQFSETNQKLLDAISSDSSSSTIQQRVHEDINVIRDTLFDVSSPLELMRDRAAYAVIHNALQEMRRYCMQLIEQEGHGENFGFTDNNSVPPLTDLAFSAAKCFKDILRAIEDAEFSVQRTQFSTR

The next lines start with the binder.

B1: Pos1, yeast two-hybrid construct (protein, UniProt O13743 1-269)
chain: MAFSPANSFLINKSICESKEVEPLEANLFGKLHNKLLICKAKKENLEKKLAYQMMYSKLLKSLPKLSSLEENKLTKLKAPIEDMENTKKELEEIRKQSTETELRYLKSLSNTLSFGTLSLSNEINKVGPSASFMLKEVHDSVQVLEQRLEKMGLIEKPSESSESSIYSILASLKHTNDSLQKKELSPHEIAESPSSHSTSPMGRNVDTETLSFLLIDWQRLCAEQNTFLRDITNNMSSSVPQDVLSQLRQFFFRSELLSDKLSNLCSES
- binding [1]: binds
- binding [2]: binds

B2: FLAG-tagged Pos1 (protein, UniProt O13743 1-269)
chain: MAFSPANSFLINKSICESKEVEPLEANLFGKLHNKLLICKAKKENLEKKLAYQMMYSKLLKSLPKLSSLEENKLTKLKAPIEDMENTKKELEEIRKQSTETELRYLKSLSNTLSFGTLSLSNEINKVGPSASFMLKEVHDSVQVLEQRLEKMGLIEKPSESSESSIYSILASLKHTNDSLQKKELSPHEIAESPSSHSTSPMGRNVDTETLSFLLIDWQRLCAEQNTFLRDITNNMSSSVPQDVLSQLRQFFFRSELLSDKLSNLCSES
- binding [3]: no binding
- binding [4]: binds
- binding [5]: binds

B5: Pos1, last 69 amino acids, yeast two-hybrid construct (domain or fragment, UniProt O13743 201-269)
chain: PMGRNVDTETLSFLLIDWQRLCAEQNTFLRDITNNMSSSVPQDVLSQLRQFFFRSELLSDKLSNLCSES
- binding [8]: binds
